# Assay results taken from PubChem BioAssay AID720709 (National Center for Advancing Translational Sciences (NCATS), 2013).
# The campaign covered roughly 360,000 compounds. About 520 (0.14%) were called active. The shares of active, inactive and inconclusive entries below differ from those in the screen. Calls follow the shape of the dose curve; as a rule, active = well fitted inhibition curve with a large enough effect; inconclusive = small, poorly fitted or top-dose-only effect; inactive = no such curve, though single readings can be large or run the other way. Potencies of inconclusive entries are left out as doubtful fits.
# Target: Rap guanine nucleotide exchange factor 3 (Homo sapiens) (UniProt O95398)
# UniProt O95398, sequence (O95398 whole entry, looked up): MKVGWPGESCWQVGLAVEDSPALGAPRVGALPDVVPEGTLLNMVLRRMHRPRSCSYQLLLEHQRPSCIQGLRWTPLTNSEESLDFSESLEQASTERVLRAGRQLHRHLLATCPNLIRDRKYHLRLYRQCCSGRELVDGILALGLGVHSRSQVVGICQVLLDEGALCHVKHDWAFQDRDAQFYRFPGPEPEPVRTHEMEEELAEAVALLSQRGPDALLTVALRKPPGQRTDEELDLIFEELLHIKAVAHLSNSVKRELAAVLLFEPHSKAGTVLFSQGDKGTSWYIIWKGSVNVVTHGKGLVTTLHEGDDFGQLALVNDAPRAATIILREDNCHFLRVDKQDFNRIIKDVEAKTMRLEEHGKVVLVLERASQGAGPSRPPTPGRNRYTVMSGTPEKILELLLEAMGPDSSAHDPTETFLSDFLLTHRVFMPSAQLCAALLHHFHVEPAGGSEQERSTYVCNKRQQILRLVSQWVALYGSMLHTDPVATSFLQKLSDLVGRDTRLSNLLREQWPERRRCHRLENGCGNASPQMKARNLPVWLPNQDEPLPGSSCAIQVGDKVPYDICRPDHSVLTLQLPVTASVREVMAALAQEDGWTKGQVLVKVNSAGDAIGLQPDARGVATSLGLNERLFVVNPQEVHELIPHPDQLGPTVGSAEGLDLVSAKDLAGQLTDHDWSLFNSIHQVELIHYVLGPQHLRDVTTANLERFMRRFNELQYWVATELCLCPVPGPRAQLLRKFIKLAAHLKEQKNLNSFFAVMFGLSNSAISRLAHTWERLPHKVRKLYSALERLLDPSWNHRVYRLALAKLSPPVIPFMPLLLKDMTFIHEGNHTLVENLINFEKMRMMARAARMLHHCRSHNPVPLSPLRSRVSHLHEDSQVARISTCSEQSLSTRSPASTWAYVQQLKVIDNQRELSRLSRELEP
# Assay: qHTS for Antagonist of cAMP-regulated guanine nucleotide exchange factor 3 (EPAC1): primary screen; also: nearly all actives have a fitted effect of over 50% in size;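 as to activity change, negative = inhibition: plate controls were vehicle for no effect and positive control for full effect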
# Settings: EPAC1 GEF assay, Rap1b-BODIPY-GDP exchange fluorescence; activity change, negative = inhibition: at 115 µM (top of the series)
# Excerpt: In multi-cellular eukaryotic organisms, the effects of cAMP are transduced by two ubiquitously-expressed intracellular cAMP receptors, the classic protein kinase A/cAMP-dependent protein kinase (PKA/cAPK) and the more recently discovered exchange protein directly activated by cAMP/cAMP-regulated guanine nucleotide exchange factor (EPAC/cAMP-GEF). Both PKA and EPAC are ubiquitously expressed in all tissues, and an increase in intracellular cAMP levels will lead to the activation of both PKA and EPAC. Therefore, careful dissections of the individual role and relative contribution of EPAC and PKA within the overall cAMP signaling in various model systems are critical for further elucidating the mechanism of cAMP signaling. To date no EPAC-specific antagonists and agonist, as well as isoform-specific agonists have been reported, and developing EPAC-specific pharmacological probes to determine the physiological functions that EPAC play in the overall cAMP-mediated signaling remains a major challenge within the research field. Furthermore, identified regulators of EPAC may lead to new mechanism-based therapeutic strategies specifically targeting the EPAC / cAMP-signaling components as EPAC has been implicated to play important roles in major human pathological conditions such as diabetes, heart disease, and cancer. This qHTS will be used to screen the Molecular Libraries Small Molecule Repository (MLSMR) as a concentration-titration series using the NCGC unique quantitative screening (qHTS) platform to find inhibitors for EPAC1. In addition, this assay will also be used as a counterscreen for the EPAC2 qHTS. This fluorescent based assay is developed and validated for EPAC1 that measures exchange using EPAC effector Rap1 complex with BODIPY-GDP, a GDP analog with a tethered fluorophores. Inhibitors are identified by monitoring the change in fluorescence signal as the exchanged free BODIPY-GDP has a reduced fluorescence compared to Rap1-bound BODIPY-GDP. Decrease in signal (inhibition) is the desired outcome for the EPAC1 antagonist while no activity in this assay is desired for the EPAC2 antagonist counterscreen. de Rooij, J., Zwartkruis, F. J., Verheijen, M. H., Cool, R. H., Nijman, S. M., Wittinghofer, A., and Bos, J.L. (1998) Nature 396, 474-477 [2] Kawasaki, H., Springett, G. M., Mochizuki, N., Toki, S., Nakaya, M., Matsuda, M., Housman, D. E., and Graybiel, A. M. (1998) Science 282, 2275-2279 NIH Chemical Genomics Center [NCGC] NIH Molecular Libraries Probe Centers Network [MLPCN] MLPCN Grant: NS066510 Assay Submitter (PI): Xiaodong Cheng, The University of Texas, Medical Branch
# Briefly, three uL of reagents (100 nM EPAC1, 250 nM RAP1B-BODIPY-GDP, 50 uM GDP) were dispensed into a 1536-well Greiner black solid-bottom medium binding assay plate. Controls and test compounds (23 nL) were transferred to the plate via a Kalypsys pin tool equipped with a 1536-pin array. The plates were centrifuged at 1,000 rpm for 15 seconds followed by 5 minute incubation at room temperature. The assay plates were read at 5 minute intervals for 30 minutes in the ViewLux plate reader using 480nm excitation and 540nm emission filters. The results were normalized to the […] positive control ATA and DMSO.
# Potency is read from the fitted curve at half-maximal effect; tags tell the direction and shape of the fitted curve.
SMILES,Potency,"activity change, negative = inhibition"
CN(C)S(=O)(=O)c1ccc(Cl)c(NC(=O)CN2CCC(Cc3ccccc3)CC2)c1,"inconclusive [inhibitor, single point]",
O=C(/C=C/c1ccc(Cl)cc1Cl)Nc1cccc(S(=O)(=O)NC2=NCCCCC2)c1,"inconclusive [inhibitor, single point]",
CCOC(=O)C(=Cc1cc(=O)c(OC)co1)C(=O)OCC,,inactive: 3.86%
Cc1ccc(C)c(S(=O)(=O)N2CCCOC2CNC(=O)C(=O)NCCC2=CCCCC2)c1 (stereo not drawn),,inactive: -20.4%
CSc1ccccc1NC(=O)C(=O)c1c[nH]c2ccccc12,"inconclusive [inhibitor, full curve]",
COc1ccc(OC)c(NC(=O)CSc2ncnc3sc(C)cc23)c1,"inconclusive [inhibitor, partial curve]",
CC(C)CC1=C/C(=C/c2ccc(-c3ccccc3)o2)C(=O)O1,"inconclusive [inhibitor, partial curve]",
CN(Cc1nc2ccccc2c(=O)[nH]1)Cc1cc(=O)oc2ccc3ccccc3c12,"inconclusive [inhibitor, single point]",
COc1ccc([N+](=O)[O-])cc1NC(=O)c1ccc(N2C(=O)CCC2=O)cc1,"inconclusive [inhibitor, full curve, poor fit]",
COC(=O)c1c(N(S(C)(=O)=O)S(C)(=O)=O)sc2c1CCN(c1ncc(C(F)(F)F)cc1Cl)C2,"inconclusive [inhibitor, single point]",
CCCCCCSc1ccc(-c2nc3ccc(C)cn3c2NCc2ccccc2)cc1,inactive,
C=C(C)C(=O)Nc1cccc(C2=NOC3(C2)C[C@H](C(N)=O)N(C(=O)/C=C/C)C3)c1 (stereo partly drawn),"inconclusive [inhibitor, full curve, poor fit]",
CN=c1scc(-c2cccs2)n1/N=C/c1ccc(O)c(O)c1O,"inconclusive [inhibitor, partial curve]",
O=C1[C@H]2[C@@H](C(=O)N1c1cccc3ccccc13)C1(C(=O)c3ccccc3C1=O)N1CCC[C@@H]21,"inconclusive [inhibitor, partial curve]",
O=C(NN1C(=O)/C(=C/c2ccc(O)c([N+](=O)[O-])c2)SC1=S)c1ccccc1Cl,"inconclusive [inhibitor, partial curve]",
C=CCN(CC=C)C(=S)NC(=O)/C=C/c1ccc(C)cc1,,inactive: 6.31%
COC(=O)c1cc(NC(=O)CC2SCCNC2=O)cc(C(=O)OC)c1 (stereo not drawn),"inconclusive [inhibitor, single point]",
CCC(CO)Oc1cc(NCc2ccccc2)c2ncn(C(C)C)c2c1 (stereo not drawn),,inactive: 3.33%
O=[N+]([O-])c1cc2c(c3cccnc13)COCO2,,inactive: -10.6%
O=C(N/N=C/CCc1ccccc1)c1ccccc1,,inactive: -7.18%
Cc1ccc([C@@H]2C[C@H]3CN(Cc4cccc(Cl)c4)C(=O)[C@]34CCCN24)o1,"inconclusive [inhibitor, single point]",
COc1ccc(CNc2nc3ccccc3n2Cc2ccc(Cl)cc2)cc1OC,"inconclusive [inhibitor, single point]",

SMILES,Potency,"activity change, negative = inhibition"
Cc1cc(C)cc(NC(=O)c2cc(Cl)sc2Cl)c1,,inactive: 10.9%
Cc1ccccc1C(=O)N/N=C/c1ccc(OCC(=O)N2CCCCC2)cc1,"inconclusive [inhibitor, single point]",
CCC(=O)Nc1nnc(S(=O)(=O)N2CCCCCC2)s1,"inconclusive [inhibitor, full curve]",
Cc1ccccc1C(=O)c1cccn1CC(=O)NC(C)c1ccccc1 (stereo not drawn),"inconclusive [inhibitor, partial curve]",
CC(C)CNC(=O)NC(=O)COC(=O)COc1ccc(Cl)cc1Cl,"inconclusive [inhibitor, partial curve, poor fit]",
COc1cccc(CN(C)C(=O)CC23CC4CC(CC(C4)C2)C3)c1OC,"inconclusive [inhibitor, single point]",
COc1ccc(CC(=O)Nc2nc(-c3ccc(F)c(F)c3)cs2)cc1,"inconclusive [inhibitor, single point]",
CCOC(=O)C1(CCc2ccccc2)CCN(C(=O)CN2C(=O)CSC2=O)CC1,"inconclusive [inhibitor, partial curve, poor fit]",
COc1ccccc1NC(=O)NNC(=O)c1ccc2c(c1)NC(=O)C(C)(C)O2,"inconclusive [inhibitor, single point]",
O=C(c1ccc(N2CCN(C3CC(=O)N(Cc4cccs4)C3=O)CC2)cc1)c1cccnc1 (stereo not drawn),,inactive: -16%
O=C1Nc2ccc([N+](=O)[O-])cc2C1=Nc1cccc(CO)c1,"inconclusive [inhibitor, full curve]",
CCc1cccc(CC)c1NC(=O)COC(=O)C1(C)CC1(Cl)Cl (stereo not drawn),,inactive: -8.69%
CC(=O)Oc1ccc(/C=C2/SC(=S)N(Cc3ccccc3)C2=O)cc1,"inconclusive [inhibitor, single point]",
COc1ccc(CCNC(=O)/C=C/c2ccco2)cc1,,inactive: 0.625%
CC(C)(C)OC(=O)NCCCCC1=CC2=CC(=O)C(C)(O)C(=O)C2=CO1 (stereo not drawn),"inconclusive [inhibitor, partial curve]",
CCc1noc(C)c1C(=O)N1CCCC(N2CCN(c3ccccc3F)CC2)C1 (stereo not drawn),,inconclusive: -16.3% [inhibitor]
COc1ccc(NC(=O)c2cc(C(=O)Nc3ccc(OC)cc3OC)cc([N+](=O)[O-])c2)c(OC)c1,,inactive: 1.07%
COc1ccc(CCNC(=O)CSc2nnc3ccc(-c4cccnc4)nn23)cc1,"inconclusive [inhibitor, single point]",
Cc1ccc(C)c(NC(=O)NCc2ccccn2)c1,"inconclusive [inhibitor, partial curve]",
NC(=O)c1cccc(-c2ccnc3c2CC(C(=O)Nc2cccc(Oc4ccccc4)c2)O3)c1 (stereo not drawn),"inconclusive [inhibitor, single point]",
COc1ccc(CCNC(=O)CN(C)S(=O)(=O)c2ccc3nc(C)sc3c2)cc1OC,"inconclusive [inhibitor, partial curve]",
